From PubChem BioAssay (Tox21)
Where “and” joins values, the source holds several entries; their conditions need not be identical. Identical values can stand only once. This list was built around the results that the source calls inconclusive (neither active nor inactive); the mix of calls is not that of the screen. Where the call is inconclusive, the potency comes from a doubtful curve fit. A structure can be active in one record and inactive in another. Calls of active or inactive are those of the source. The call rests on the fitted dose curve; in most records, active means well fitted cell-killing curve with a large enough effect in the repeat runs; inconclusive means weak or mixed curves, or effect the other way; inactive means no such curve, though single readings can be large or run the other way.

assay: qHTS assay to identify small molecule antagonists of the sonic hedgehog signaling (Shh) pathway - cell viability counter screen (AID 1259367); details: NIH/3T3 Gli1-Luc viability, CellTiter-Fluor, 24 h; series mostly up to 92.4 µM; further: nearly all actives have a fitted effect of over 55% in size
Text: National Center for Advancing Translational Sciences [NCATS]
NIH Chemical Genomics Center [NCGC]
U.S. Environmental Protection Agency [EPA]
National Institutes of Environmental Health Sciences [NIEHS]
National Toxicology Program [NTP]
U.S. Food and Drug Administration [FDA]
The sonic hedgehog (Shh) pathway is essential for normal embryonic development. Dysregulation of the Shh pathway can cause severe developmental defects in organs. Therefore chemicals that interfere with the pathway are potential developmental toxicants. A cell line designated 3T3Gli1-Luc (DMB/OARSA/CFSAN/FDA, Laurel, MD), a NIH/3T3 derived clone containing stably integrated Gli1-Luc reporter is used to detect chemical interference of the Shh pathway, by changes in the expression of the firefly Luc gene under the control of the Gli1 transcriptional response element. This cell line was used to screen Tox21 libraries for identifying and prioritizing the potential developmental toxicants that interfere Shh pathway. Conditioned medium-stimulated mode was used to screen for chemicals inhibiting Shh signaling. The cytotoxicity of the compounds was tested in parallel by measuring the cell viability using CellTiter-Fluor assay system (Promega, Madison, WI) in the same wells.
Tox21 Assay Protocol Summary:
3T3 Gli1-Luc cells were dispensed at 2,000 per well in 5uL of culture medium into white solid bottom 1536-well plates (Greiner Bio-One, Monroe, NC) using a Multidrop Combi (Thermo Scientific, Waltham, MA) dispenser. The assay plates were incubated at 37 C and 5% CO2 for 4hr, and then 23nL of compounds dissolved in DMSO and positive control were transferred using a Pintool station (Wako, San Diego, CA). The compound transfer was followed by the addition of 1ul conditioned medium or assay buffer using two separate tips of Flying Reagent Dispenser (FRD, Aurora Discovery, San Diego, CA). The assay plates were incubated at 37C and 5% CO2 for 24hr. For viability read, after 23hr of compound treatment, 1uL of CellTiter-Fluor reagent (Promega Corporation, Madison, WI) was added to each well of the assay plates using Flying Reagent Dispenser (FRD, Aurora Discovery, San Diego, CA) and incubated the assay plates at 37C for 1hr. The fluorescence signal was quantified using a ViewLux plate reader (Perkin Elmer, Shelton, CT).
Potency means the concentration at half of the fitted maximal effect; tags describe the fitted curve by direction and shape.

| Compound | Potency |
| --- | --- |
| COc1ccc2c3c1O[C@H]1[C@@H](O)C=C[C@H]4[C@@H](C2)N(C)CC[C@@]341 | active: 26.9 µM and inactive |
| [Cl-].[Cl-].[Sn+2] | inactive |
| Cc1ccc(-c2c(Cl)nc(C#N)n2S(=O)(=O)N(C)C)cc1 | inconclusive: 68.5 µM [cytotoxic, single point] |
| CC(C)(C)C(O)C(Oc1ccc(Cl)cc1)n1cncn1 (stereo not given) | inconclusive: 68.6 µM [cytotoxic, single point] |
| CC(CC(C#N)(c1ccccc1)c1ccccc1)N(C)C (stereo not given) | inconclusive: 12.1 µM [cytotoxic, full curve, poor fit] |
| CC(=O)[O-].CC(=O)[O-].[Co+2] | inconclusive: 30.7 µM [rising, partial curve, poor fit] |
| CCOCN(C(=O)CCl)c1c(C)cccc1CC | inconclusive: 51.4 µM [cytotoxic, partial curve] |
| CCC[N+]1(C)CCCC1 | inactive |
| CC(C)CCCCCCOC(=O)c1ccccc1C(=O)OCCCCCCC(C)C | inactive |
| [Cl][Sb]([Cl])[Cl] | inconclusive: 68.6 µM [cytotoxic, single point] |
| CC(C)(C)C(O)(CCc1ccc(Cl)cc1)Cn1cncn1 (stereo not given) | inconclusive: 69.4 µM [cytotoxic, partial curve, poor fit] |
| O=C(O)CCCc1ccc(N(CCCl)CCCl)cc1 | inconclusive: 27.4 µM [cytotoxic, partial curve, poor fit] and inconclusive: 68.6 µM [cytotoxic, single point] |
| COc1cccc(C=O)c1 | inactive |
| O=C(c1ccccc1)C(Cl)Cl | inconclusive: 54.5 µM [cytotoxic, partial curve] |
| CCOC(=O)CBr | inactive |
| CC1COC2(c3ccccc3Cl)c3cc(Cl)ccc3NC(=O)CN12 (stereo not given) | inactive |
| COc1cc(N)c(Cl)cc1C(=O)NC1CN2CCC1CC2 (stereo not given) | inactive |
| CCCCCCCCCCCCCCCC[n+]1ccccc1 | inconclusive: 33.5 µM [cytotoxic, single point] |
| CC(C)(C)C(O)C(Oc1ccc(-c2ccccc2)cc1)n1cncn1 (stereo not given) | active: 24.3 µM |
| C[CH2][Hg][N]1C(=O)C2C(C1=O)C1(Cl)C(Cl)=C(Cl)C2(Cl)C1(Cl)Cl (stereo not given) | inconclusive: 16.4 µM [cytotoxic, single point] |

| Compound | Potency |
| --- | --- |
| C=CC(=O)OCC(C)O (stereo not given) | inactive |
| O=C1C(=O)c2cccc3cccc1c23 | inconclusive: 7.69 µM [cytotoxic, full curve] |
| N#CSCc1ccccc1 | inconclusive: 68.9 µM [cytotoxic, single point] |
| Nc1ccc(Cl)cc1C(=O)c1ccccc1 | inconclusive: 68.6 µM [cytotoxic, partial curve, poor fit] |
| CC1(C)CC/C(=C/c2ccc(Cl)cc2)C1(O)Cn1cncn1 (stereo not given) | inconclusive: 68.2 µM [cytotoxic] |
| Cc1ccccc1OP(=O)(Oc1ccccc1C)Oc1ccccc1C | inconclusive: 68.9 µM [cytotoxic, partial curve, poor fit] |
| C1CN2CCN1CC2 | inactive |
| Fc1cccc(Cl)c1CCl | inactive |
| CCCCN(CCCC)C(=S)S | inconclusive: 13.7 µM [cytotoxic, single point] |
| O=C1C[C@@H]2OCC=C3CN4CC[C@]56c7ccccc7N1[C@H]5[C@H]2[C@H]3C[C@H]46 | inconclusive: 11.9 µM [cytotoxic, partial curve] |
| CCCCCc1cc(O)cc(O)c1 | inconclusive: 68.9 µM [cytotoxic, partial curve, poor fit] |
| Nc1ccc(-c2ccccc2)cc1 | inconclusive: 19.9 µM [cytotoxic, full curve] |
| CC1Sc2c(C(=O)O)c(=O)c3cc(F)c(N4CCNCC4)cc3n21 (stereo not given) | inactive |
| CC(Cl)Cl | inconclusive: 65.5 µM [cytotoxic, single point] |
| CCN(CC)C(=O)C(C)Oc1cccc2ccccc12 (stereo not given) | inconclusive: 54.9 µM [cytotoxic, partial curve, poor fit] |
| SCc1ccccc1 | inactive |
| CCOP(=O)(SC(C)CC)N1CCSC1=O (stereo not given) | inactive |
| C[C@]12CCC(=O)C=C1CC[C@@H]1[C@@H]2CC[C@]2(C)C(=O)CC[C@@H]12 | active: 60.1 µM and inconclusive: 68.6 µM [cytotoxic, single point] |
| C[C@H]1CCC[C@H](O)CCCCCc2cc(O)cc(O)c2C(=O)O1 | inconclusive: 54.9 µM [cytotoxic, partial curve] |
| Cc1ccc(N)cc1N | inconclusive: 54.5 µM [rising, partial curve] |
